The text below walks through data of PMC4068158.

By UniProt entry, the sequences of proteins in these tests, tags left out. Where a name states a change or a piece, a line headed by the entry shows the natural chain unless it says otherwise. Chains listed by the source or under a name are the forms on record and can include a tag or linker.
Flag-FAF1 F296A (Q9UNN5, form named): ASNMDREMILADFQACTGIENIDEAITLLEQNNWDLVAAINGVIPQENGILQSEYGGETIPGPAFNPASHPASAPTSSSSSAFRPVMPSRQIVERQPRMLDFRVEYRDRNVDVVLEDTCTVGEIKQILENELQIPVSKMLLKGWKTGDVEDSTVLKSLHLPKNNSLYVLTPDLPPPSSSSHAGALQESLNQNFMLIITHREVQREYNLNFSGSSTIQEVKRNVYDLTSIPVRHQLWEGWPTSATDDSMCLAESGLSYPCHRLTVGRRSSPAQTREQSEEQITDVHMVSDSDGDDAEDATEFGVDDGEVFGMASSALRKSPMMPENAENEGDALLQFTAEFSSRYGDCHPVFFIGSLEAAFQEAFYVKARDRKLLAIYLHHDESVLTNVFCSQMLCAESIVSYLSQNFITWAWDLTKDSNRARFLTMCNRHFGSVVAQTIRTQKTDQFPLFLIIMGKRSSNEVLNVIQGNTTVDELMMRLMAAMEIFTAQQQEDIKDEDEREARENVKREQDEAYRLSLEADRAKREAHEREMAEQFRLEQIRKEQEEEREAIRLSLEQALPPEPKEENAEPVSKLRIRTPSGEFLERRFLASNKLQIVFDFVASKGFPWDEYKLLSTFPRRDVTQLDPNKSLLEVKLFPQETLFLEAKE
Flag-FAF1 D295A/F296A/E297A (Q9UNN5, form named): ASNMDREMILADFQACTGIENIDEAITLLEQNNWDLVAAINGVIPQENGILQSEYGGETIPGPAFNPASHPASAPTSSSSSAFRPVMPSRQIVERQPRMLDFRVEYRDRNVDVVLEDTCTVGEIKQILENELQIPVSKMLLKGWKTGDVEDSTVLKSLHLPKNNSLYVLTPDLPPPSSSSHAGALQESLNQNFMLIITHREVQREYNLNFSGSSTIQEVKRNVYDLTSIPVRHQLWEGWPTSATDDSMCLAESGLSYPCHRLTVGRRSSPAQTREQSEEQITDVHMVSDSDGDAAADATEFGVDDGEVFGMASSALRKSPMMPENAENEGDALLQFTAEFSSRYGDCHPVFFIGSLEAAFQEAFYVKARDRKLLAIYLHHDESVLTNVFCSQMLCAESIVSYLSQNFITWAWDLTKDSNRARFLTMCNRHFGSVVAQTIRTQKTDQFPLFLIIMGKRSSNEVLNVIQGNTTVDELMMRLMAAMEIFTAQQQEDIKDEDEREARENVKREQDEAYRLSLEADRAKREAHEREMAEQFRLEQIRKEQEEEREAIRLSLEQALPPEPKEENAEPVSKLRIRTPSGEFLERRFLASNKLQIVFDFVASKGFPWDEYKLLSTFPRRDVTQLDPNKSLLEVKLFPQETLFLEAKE
Flag-FAF1 P620G (Q9UNN5, form named): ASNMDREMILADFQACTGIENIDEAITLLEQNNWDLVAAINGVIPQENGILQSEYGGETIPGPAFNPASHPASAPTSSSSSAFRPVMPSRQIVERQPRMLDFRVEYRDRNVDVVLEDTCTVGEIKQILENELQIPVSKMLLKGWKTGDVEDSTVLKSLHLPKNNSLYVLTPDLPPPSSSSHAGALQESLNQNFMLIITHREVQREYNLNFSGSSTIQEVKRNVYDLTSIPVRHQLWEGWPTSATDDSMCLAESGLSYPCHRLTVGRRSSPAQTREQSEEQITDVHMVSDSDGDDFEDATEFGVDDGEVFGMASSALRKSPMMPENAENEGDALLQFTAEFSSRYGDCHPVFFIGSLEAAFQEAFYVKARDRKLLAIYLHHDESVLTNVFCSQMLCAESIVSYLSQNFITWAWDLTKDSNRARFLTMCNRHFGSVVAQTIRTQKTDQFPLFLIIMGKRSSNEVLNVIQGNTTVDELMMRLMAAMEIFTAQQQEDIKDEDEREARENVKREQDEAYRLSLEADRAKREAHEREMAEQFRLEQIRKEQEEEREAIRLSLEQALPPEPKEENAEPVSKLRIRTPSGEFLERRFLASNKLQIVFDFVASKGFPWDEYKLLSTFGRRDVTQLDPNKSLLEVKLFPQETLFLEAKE
UniProt O43681: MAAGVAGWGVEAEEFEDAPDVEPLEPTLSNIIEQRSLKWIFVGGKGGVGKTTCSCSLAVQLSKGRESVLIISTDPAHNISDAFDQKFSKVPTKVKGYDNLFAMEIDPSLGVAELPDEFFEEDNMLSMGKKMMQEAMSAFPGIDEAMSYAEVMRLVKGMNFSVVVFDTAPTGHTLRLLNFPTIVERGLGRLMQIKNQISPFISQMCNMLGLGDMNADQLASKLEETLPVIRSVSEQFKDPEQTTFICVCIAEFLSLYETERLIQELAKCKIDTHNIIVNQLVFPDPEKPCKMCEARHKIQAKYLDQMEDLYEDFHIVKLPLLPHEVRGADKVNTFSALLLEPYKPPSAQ
UniProt O95292: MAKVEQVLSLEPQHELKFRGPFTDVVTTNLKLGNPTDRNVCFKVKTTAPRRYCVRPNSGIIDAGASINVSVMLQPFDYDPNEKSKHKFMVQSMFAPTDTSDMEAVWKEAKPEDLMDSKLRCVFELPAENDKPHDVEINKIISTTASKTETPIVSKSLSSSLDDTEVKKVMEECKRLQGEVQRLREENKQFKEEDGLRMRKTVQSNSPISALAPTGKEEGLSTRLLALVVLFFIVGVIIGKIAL

Results are given in words; binding and its absence hold for the method and conditions named. In cells and extracts the contact can be indirect. Some results given as binding are weak or reduced against the parent protein; the word gives no strength. For some assays here: Tags and fused reporters may be left off the sequences shown.

Holding throughout (test): co-IP; anti-Flag M2 beads on lysates of U2OS cells expressing the Flag-tagged bait (transfected or tetracycline-induced); buffer A (50 mM HEPES/KOH pH 7.2, 5 mM Mg(OAc)2, 70 mM KOAc, 0.2% Triton X-100, 10% glycerol, 0.2 mM EDTA), 4°C, 2 hr; endogenous prey by immunoblot; cells untreated, treated with MG132 or with siRNA (FAF1, p97, ASNA1, luciferase) as indicated
In general terms: Immunoblotting shows a protein as a band on a membrane.

For assay [1], the target named is Flag-FAF1 F296A (human) (UniProt Q9UNN5).
Assay [2] deals with T1, Flag-WDR44 Δ1-15 (human) (UniProt Q5JSH3).
T1 sequence: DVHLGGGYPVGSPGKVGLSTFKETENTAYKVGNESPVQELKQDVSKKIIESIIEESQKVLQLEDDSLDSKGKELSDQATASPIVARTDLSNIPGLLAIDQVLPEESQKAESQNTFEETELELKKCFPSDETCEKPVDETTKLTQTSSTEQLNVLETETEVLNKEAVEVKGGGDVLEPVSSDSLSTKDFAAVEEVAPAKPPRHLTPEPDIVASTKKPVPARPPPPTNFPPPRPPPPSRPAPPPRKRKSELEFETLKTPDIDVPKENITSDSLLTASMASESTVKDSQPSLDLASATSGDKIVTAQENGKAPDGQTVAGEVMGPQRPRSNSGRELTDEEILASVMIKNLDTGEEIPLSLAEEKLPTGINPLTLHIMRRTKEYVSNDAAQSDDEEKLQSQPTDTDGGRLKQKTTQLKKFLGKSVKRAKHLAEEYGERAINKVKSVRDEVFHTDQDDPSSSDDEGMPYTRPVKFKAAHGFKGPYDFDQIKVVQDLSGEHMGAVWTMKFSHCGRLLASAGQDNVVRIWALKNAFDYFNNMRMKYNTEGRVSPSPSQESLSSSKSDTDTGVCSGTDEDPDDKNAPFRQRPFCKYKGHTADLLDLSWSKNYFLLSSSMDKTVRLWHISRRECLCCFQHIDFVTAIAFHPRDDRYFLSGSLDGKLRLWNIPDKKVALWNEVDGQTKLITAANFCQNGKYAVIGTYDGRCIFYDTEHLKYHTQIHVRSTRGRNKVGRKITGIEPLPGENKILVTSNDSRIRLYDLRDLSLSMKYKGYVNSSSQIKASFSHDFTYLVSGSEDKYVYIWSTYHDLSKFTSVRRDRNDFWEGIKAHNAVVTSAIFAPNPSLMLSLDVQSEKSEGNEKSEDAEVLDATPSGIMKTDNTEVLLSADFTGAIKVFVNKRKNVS

The target of assay [3] is Flag-ASNA1 wild type (human) (UniProt O43681).
For assay [4], the target named is Flag-FAF1 D295A/F296A/E297A (human) (UniProt Q9UNN5).
For assay [5], the target named is Flag-FAF1 P620G (human) (UniProt Q9UNN5).

Regarding “endogenous VAPB (human cells) (from UniProt O95292 1-243)”, the binding result is listed as “no binding” in assay [1]; “no binding” in assay [2]; “binds” in assay [3]; “no binding” in assay [4]; “binds” in assay [5].
